Reference: PubChem BioAssay AID651820 (National Center for Advancing Translational Sciences (NCATS), 2012)
Among all 340,000 compounds or so, about 12,000 (3.5%) were called active. The inconclusive results got no clear call from the source; some entries with a clear call stand among them for comparison. Calls follow the shape of the dose curve; as a rule, active = well fitted inhibition curve with a large enough effect; inconclusive = small, poorly fitted or top-dose-only effect, or another doubt; inactive = no such curve, though single readings can be large or run the other way. No potency is given beside an inconclusive call; the fits are too rough.

Assay: qHTS Assay for Inhibitors of Hepatitis C Virus (HCV)
Conditions: Huh7.5.1 HCVcc-Cre (HCVcc is cell-culture hepatitis C virus) infection, luciferase reporter, 44 h; activity change, negative = inhibition: at 41.8 µM (top of the series) unless noted
In short: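 Compounds are dispensed onto cells plated 4 h earlier at 1,000 per well, with HCVcc-Cre virus (about 0.5 moi) added next. Following 44 h of culture, luminescent signal is measured for 15 sec after 15 min with substrate at room temperature.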
% is scaled to controls: 0 for no effect and ±100 for the full control effect; potency is read from the fitted curve at half-maximal effect; tags tell the direction and shape of the fitted curve.

SMILES | Potency | activity change, negative = inhibition
Cc1ccc(C(OCC(O)CNCc2ccc(F)cc2)c2ccccc2)cc1 (stereo not drawn) | active: 8.91 µM | 
COc1ccc(-c2nc3cc(C)ccn3c2NC2CCCCC2)cc1SC1CCCCC1 | active: 3.55 µM | 
CCC(C(=O)NCCCc1ccccc1)n1nc(C)c2c(C)n(-c3ccccc3)nc2c1=O (stereo not drawn) | inconclusive [inhibitor, single point] | 
CCOC(=O)C1(Cc2cccc(OC)c2)CCN(Cc2cccc(OC)c2OC)CC1 | active: 10 µM | 
CCN(CC)CCCN1C(=O)C(=O)/C(=C(/O)c2ccc3c(c2)OCCO3)C1c1ccco1 (stereo not drawn) |  | inactive: -0.759%
COc1ccc2c(-c3ccccc3)cc(N3CCOCC3)nc2c1 | active: 12.6 µM | 
CCc1ccc(C(=O)COC(=O)CNC(=O)c2ccc(N3C(=O)c4ccccc4C3=O)cc2)cc1 |  | inactive: 20.7%
O=C(COc1coc(CN2CCc3ccccc3C2)cc1=O)Nc1ccc(F)cc1F | inconclusive [inhibitor, single point] | 
COc1cccc(Cl)c1NC(=O)N1CCN(c2cc(C)nc3ccccc23)CC1 | active: 10 µM | 
Cc1ccc2nc(-c3ccncc3)cc(-c3ccccc3)c2c1 | active: 11.2 µM | 
O=C(Nc1cccc(Cl)c1N1CCCC1)c1ccc(Br)o1 | inconclusive [inhibitor, single point] | 
O=C1NC(c2ccccc2Cl)=N/C1=C/c1ccco1 |  | inactive: 9.11%
Cc1ccc(NC(=O)c2cccc(F)c2)cc1S(=O)(=O)N1CCCCCC1 | inconclusive [inhibitor, single point] | 
COc1ccc(C(=O)N2N=C(c3cccc(NS(C)(=O)=O)c3)CC2c2cccs2)cc1 (stereo not drawn) |  | inactive: -13.3%
CC(=O)Nc1ccc(S(=O)(=O)N[C@H](C(=O)O)C(C)C)cc1 |  | inactive: 3.47%
Cc1ccc[n+](CC(=O)Nc2ccc(N(C)C)cc2)c1 |  | inactive: 10.5%
Cc1cc(C)c(NC(=O)CN(C)C(C)C(=O)N2CCc3ccccc32)c(C)c1 (stereo not drawn) | inconclusive [inhibitor, single point] | 
COc1ccc(S(=O)(=O)N2CCOCC2)cc1NC(=O)CCc1c[nH]c2ccccc12 | inconclusive [inhibitor, partial curve, poor fit] | 
CC(=O)Nc1sc2c(c1CN1CCN(c3ccc(F)cc3)CC1)CCCC2 | inconclusive [inhibitor, single point] | 
CCOC(=O)N1CCN(C(=O)CCC(=O)N2CCOc3ccc(C)cc32)CC1 |  | inactive: 8.09%
CCN(CC)S(=O)(=O)c1ccc(C)c(NC(=O)CNc2cccc(S(=O)(=O)N3CCCC3)c2)c1 | active: 10 µM | 
N#Cc1cc(C(=O)c2cc(F)ccc2O)cn(Cc2ccccc2)c1=O | inconclusive [inhibitor, single point] | 
O=C(NC1CCCCC1)C(c1ccccc1)N(Cc1ccco1)C(=O)Cn1cnc2ccccc21 (stereo not drawn) |  | inactive: -9.35%
CCC(C)c1ccc(NC(=S)NCCn2cc(Cl)cn2)cc1 (stereo not drawn) |  | inactive: -11.6%

SMILES | Potency | activity change, negative = inhibition
O=c1c2ccccc2sc2ccc(C#CC3(O)CCCCC3)cc12 | inconclusive [inhibitor, partial curve] | 
Cc1cc(N(CCCl)CCCl)ccc1/C=N/N=C(\N)c1cnccn1 | inconclusive [inhibitor, full curve] | 
O=C1Nc2ccccc2S/C1=C/c1cccs1 | active: 6.31 µM | 
C=CCn1cccc(C(=O)Nc2ccc(Cl)cc2)c1=O | active: 11.2 µM | 
CS(=O)(=O)N(CC(=O)NCc1ccccc1)c1ccc(Cl)cc1 |  | inactive: 4.34%
CCCCOC(=O)Cn1c2ccc(OC)cc2c2nc3ccccc3nc21 | inconclusive [inhibitor, single point] | 
CCN(c1ccccc1)S(=O)(=O)c1ccc(Cl)c(C(=O)N(CC2CCCO2)C2CCS(=O)(=O)C2)c1 (stereo not drawn) | inconclusive [inhibitor, partial curve] | 
Cc1nn(-c2ccc(NC(=O)c3ccncc3)cc2)c(C)c1Cl | active: 3.16 µM | 
COc1ccc(-c2nc3c(c4nnc(SC(C)C(=O)Nc5ccc(C)cc5)n24)COC(C)(C)C3)cc1 (stereo not drawn) | inconclusive [inhibitor, single point] | 
Cn1ncc2c(N3CCN(c4ccccc4F)CC3)ncnc21 | inconclusive [inhibitor, partial curve] | 
Cn1ccsc1=NC(=O)c1ccc(S(C)(=O)=O)c([N+](=O)[O-])c1 | active: 10 µM | 
CCN=C1S/C(=C\c2cc(Br)ccc2OCC(=O)OCC)C(=O)N1CC | inconclusive [inhibitor, single point] | 
O=C(Nc1c(Cl)cc(Cl)cc1-c1nc2ccccc2s1)c1ccc(Br)o1 | inconclusive [inhibitor, partial curve] | 
O=C(COC(=O)c1c2c(nc3ccccc13)/C(=C\c1ccco1)CC2)NC1CCCC1 | inconclusive [inhibitor, full curve, poor fit] | 
Cc1ccc(CN2CCc3c(OCc4ccc(F)cc4)cccc3C2=O)cc1 | inconclusive [inhibitor, full curve] | 
COc1ccc(NC(=O)c2cccs2)cc1NC(=O)c1ccco1 | inconclusive [inhibitor, partial curve, poor fit] | 
Cc1cccc(C)c1C(OCCN(C)C)C1CCCCC1 (stereo not drawn) | inconclusive [inhibitor, single point] | 
CC(C)Cc1cc(CN2CCCC(CO)(Cc3cccc(Cl)c3)C2)[nH]n1 (stereo not drawn) | inconclusive [inhibitor, single point] | 
CC(=O)Nc1ccc(S(=O)(=O)N(Cc2cccnc2)Cc2cc3ccc(C)cc3[nH]c2=O)cc1 | inconclusive [inhibitor, single point] | 
CCOc1ccc(OCCCC(=O)NC2=NCCS2)cc1 |  | inactive: -10.6%
O=C(CC(c1ccccc1)c1cc(Br)ccc1O)NCc1ccco1 (stereo not drawn) | inconclusive [inhibitor, partial curve] | 
O=C(Nc1ccccc1)Nc1cnccn1 |  | inactive: 6.71%
COc1ccc(C(C)(C)C)cc1NC(=O)COC(=O)C1=NNC(=O)CC1 |  | inactive: -10.2%
C[C@H](CO)N1C[C@H](C)[C@@H](CN(C)Cc2ccc(Oc3ccccc3)cc2)Oc2c(NC(=O)c3ccncc3)cccc2C1=O | inconclusive [inhibitor, partial curve] | 
